From the supplement of paper PMC4967469 come the findings set out here.

pIC50: −log10 of the molar value. Lines with a small IC50 respond at low doses; a limit (>, <) means that the fit lies beyond the doses tested. AUC is the area under the same curve over the 256-fold range up to the top dose, as a fraction; values near 1 show little effect. An entry number marks a drug with two screens in the source, which often give different values.

Compound in this assay: CS(=O)(=O)N1CCN(Cc2cc3nc(-c4cccc5[nH]ncc45)nc(N4CCOCC4)c3s2)CC1 [GDC0941]
Description: Viability of human cancer cell lines after 72 h of drug (GDSC screen). The following applies: screen: GDSC drug entry 1058. On the procedure:
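Human cancer cell lines in 384-well plates, medium with 10% serum, drug for 72 h over a 256-fold dose range (nine 2-fold or five 4-fold steps up to the top dose). Adherent lines were fixed and stained with the nucleic acid dye Syto60, suspension lines read with resazurin; signal relative to control wells, capped at 0 and 100%. One two-parameter sigmoid per drug and line, fitted in a mixed model over all curves with the slope shared within a line.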
The pIC50 is −log10 of the IC50, conventionally taken in molar units. For the cell line “PCI-4B (head and neck, adherent, top dose 4 µM)”, the AUC is 0.669 and the pIC50 was 6.14.

As for “PCI-6A (head and neck, adherent, top dose 4 µM)”, the AUC worked out at 0.648 and the pIC50 was 6.20.

On to “PCI-15A (head and neck, adherent, top dose 4 µM)”, for which the AUC came to 0.986 and the pIC50 is < 5.40.

As for “PCI-30 (head and neck, adherent, top dose 4 µM)”, the AUC was found to be 0.802 and the pIC50 was 5.60.

On to “PE/CA-PJ15 (head and neck, adherent, top dose 4 µM)”, for which the AUC was 0.893 and the negative-log IC50 (pIC50) was < 5.40.

Take PEO1 (ovary, adherent, top dose 4 µM): the AUC amounted to 0.887 and the pIC50 is < 5.40.

With “PF-382 (T-cell lymphoblastic leukaemia, suspension, top dose 4 µM)”, the AUC stood at 0.813 and the pIC50 is 5.74.

For “PFSK-1 (medulloblastoma, adherent, top dose 4 µM)”, the AUC was found to be 0.721 and the negative logarithm of the IC50 (pIC50) is 5.95.

With PL4 (pancreas, adherent, top dose 4 µM), the AUC was 0.876 and the pIC50 was < 5.40.

In the case of “PSN1 (pancreas, adherent, top dose 4 µM)”, the AUC worked out at 0.893 and the pIC50 is 5.46.

With “PWR-1E (prostate, adherent, top dose 4 µM)”, the AUC amounted to 0.821 and the pIC50 was 5.64.

Take “QGP-1 (pancreas, adherent, top dose 4 µM)”: the AUC was found to be 0.947 and the pIC50 is < 5.40.

Regarding “QIMR-WIL (acute myeloid leukaemia, suspension, top dose 4 µM)”, the AUC stood at 0.907 and the pIC50 was < 5.40.

Take “RC-K8 (B-cell lymphoma, suspension, top dose 4 µM)”: the AUC worked out at 0.993 and the pIC50 was < 5.40.

For “RCC10RGB (kidney, adherent, top dose 4 µM)”, the AUC is 0.822 and the pIC50 is < 5.40.

With “RCC-AB (kidney, adherent, top dose 4 µM)”, the AUC was 0.75 and the negative logarithm of the IC50 (pIC50) is 5.78.

For “RCC-ER (kidney, adherent, top dose 4 µM)”, the AUC stood at 0.751 and the pIC50 is 5.84.

“RCC-FG2 (kidney, adherent, top dose 4 µM)”: the AUC came out at 0.709 and the negative-log IC50 (pIC50) is 5.94.

Regarding “RCC-JF (kidney, adherent, top dose 4 µM)”, the AUC is 0.557 and the pIC50 was 6.44.

In the case of “RCC-JW (kidney, adherent, top dose 4 µM)”, the AUC stood at 0.652 and the pIC50 was 6.18.

In the case of “RCC-MF (kidney, adherent, top dose 4 µM)”, the AUC was 0.698 and the pIC50 was 5.97.

Regarding “RCH-ACV (B-cell leukaemia, suspension, top dose 4 µM)”, the AUC was determined as 0.238 and the pIC50 was 7.28.

“RCM-1 (large intestine, adherent, top dose 4 µM)”: the AUC worked out at 0.856 and the pIC50 was < 5.40.

For the cell line “REH (B-cell leukaemia, suspension, top dose 4 µM)”, the AUC came to 0.502 and the negative-log IC50 (pIC50) is 6.60.

On to “RERF-LC-KJ (lung adenocarcinoma, adherent, top dose 4 µM)”, for which the AUC is 0.811 and the negative-log IC50 (pIC50) is 5.66.

“RERF-LC-MS (lung adenocarcinoma, adherent, top dose 4 µM)”: the AUC was 0.854 and the pIC50 is 5.48.

As for “RERF-LC-Sq1 (lung squamous cell carcinoma, adherent, top dose 4 µM)”, the AUC is 0.693 and the negative-log IC50 (pIC50) was 5.95.

Regarding “RF-48 (stomach, adherent, top dose 4 µM)”, the AUC was found to be 0.812 and the pIC50 was 5.61.
